# From PubChem BioAssay AID504832 (National Center for Advancing Translational Sciences (NCATS), 2011)
# “And” between values parts separate entries of the source, which are not always exact repeats. Identical values can stand only once. The campaign covered roughly 310,000 compounds. About 18,000 (5.8%) were called active. The inconclusive results got no clear call from the source; some entries with a clear call stand among them for comparison. Calls come from the whole dose curve; as a rule, active = well fitted inhibition curve with a large enough effect; inconclusive = small, poorly fitted or top-dose-only effect, or another doubt; inactive = no such curve, though single readings can be large or run the other way. No potency is given beside an inconclusive call; the fits are too rough.
# Assay: Primary qHTS for delayed death inhibitors of the malarial parasite plastid, 48 hour incubation
# Conditions: P. falciparum luciferase growth in erythrocytes; series mostly up to 28.7 µM
# Outline: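 Growth was read as firefly luciferase luminescence after a 48 h, 37 C, 5% CO2 exposure of compounds to reporter-bearing P. falciparum cultures (0.1% parasitemia, 2% hematocrit final) in Albumax-supplemented RPMI 1640.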
# Potency is the fitted concentration of half-maximal effect; tags give direction and shape of the fitted curve.
row,SMILES,Potency
1,COc1cc(O)c(C(CC(=O)N2CCCC2)c2cc(OC)c(OC)c(OC)c2)c(OC)c1 (stereo not drawn),"inconclusive [inhibitor, single point]"
2,CC(=O)Oc1ccc(N2C(=O)C3C4C=CC(C5CC45)C3C2=O)cc1[N+](=O)[O-] (stereo not drawn),inactive
3,Cc1cccc(N=C2NC(=O)/C(=C/c3cccnc3)S2)c1,"inconclusive [inhibitor, partial curve, poor fit]"
4,COc1cc(C(=O)NNC(=O)c2cc(=O)[nH]c3ccccc23)cc(OC)c1OC,"inconclusive [inhibitor, partial curve, poor fit]"
5,CCCCN(C)CCCNC(=O)C1CCC(CNS(=O)(=O)c2c(C)cc(C)cc2C)CC1 (stereo not drawn),"inconclusive [inhibitor, single point]"
6,O=C(Nc1ccc(F)cc1F)c1ccc(S(=O)(=O)N2CCCCC2)cc1,"inconclusive [inhibitor, single point]"
7,COC(=O)c1ccc(CN2C(=O)C(C)N(C(=O)c3c(F)cccc3F)c3ccccc32)cc1 (stereo not drawn),"inconclusive [inhibitor, partial curve]"
8,CCc1ccc(OCCCC(=O)NCc2ccco2)cc1,"inconclusive [inhibitor, single point]"
9,O=c1[nH]c2ccc(S(=O)(=O)N3CCN(c4ccc(F)cc4)CC3)cc2o1,"inconclusive [inhibitor, single point]"
10,Cc1cc(C(=O)NP(=O)(N2CCOCC2)N2CCOCC2)c(C)n1C1CC1,inactive
11,O=C(CSc1nc2ccccc2c(=O)n1-c1ccccc1Cl)Nc1cccc(S(=O)(=O)N2CCOCC2)c1,"inconclusive [inhibitor, partial curve, poor fit]"
12,COc1ccc2[nH]c(=O)c(CN(C(=O)c3cccnc3)c3ccccc3OC)cc2c1,"inconclusive [inhibitor, single point]"
13,O=C(CC1SC(=Nc2ccccc2)N(CCO)C1=O)Nc1ccccc1 (stereo not drawn),"inconclusive [inhibitor, full curve, poor fit]"
14,COc1ccc(C(=O)Nc2ccc(N3CCN(C(=O)c4ccccc4)CC3)cc2)cc1[N+](=O)[O-],"inconclusive [inhibitor, single point]"
15,O=C(CN(Cc1ccc(Cl)cc1)S(=O)(=O)c1ccccc1)NCC1CCCO1 (stereo not drawn),"inconclusive [inhibitor, single point]"
16,CC(C)(C)S(=O)(=O)c1cnc(-c2ccccn2)nc1N,inactive
17,O=C(Nc1nccs1)c1ccc(-c2ccc(F)c(Cl)c2)o1,"inconclusive [inhibitor, single point]"
18,Cc1ccccc1-c1nc(CS(=O)(=O)CC(=O)NCCc2ccccc2)c(C)o1,inactive
19,CCc1ccc(OCCSc2nc3ccccc3n2CCC(=O)O)cc1,"inconclusive [inhibitor, single point]"
20,O=C(NCCN1C(=O)S/C(=C\c2ccccc2)C1=O)c1cc(S(=O)(=O)N2CCOCC2)c(Cl)cc1Cl,"inconclusive [inhibitor, single point]"
21,CC(C)Nc1ccc(Nc2ccccc2)cc1,active: 12 µM and active: 4.15 µM
22,NC(=O)c1ccc(Sc2nnc(-c3cccs3)n2CC2CCCO2)c([N+](=O)[O-])c1 (stereo not drawn),inactive

row,SMILES,Potency
1,Cc1cccc2nc(Cn3c(=O)n(CCCC(=O)NCc4ccco4)c(=O)c4ccccc43)cc(=O)n12,"inconclusive [inhibitor, single point]"
2,Cc1ccccc1NS(=O)(=O)c1ccc(C(=O)NNC(=O)c2ccccc2O)cc1,"inconclusive [inhibitor, single point]"
3,O=C(Nc1nnc(C2CCCCC2)s1)c1ccco1,inactive
4,COc1ccc(-n2c(C)cc(C(=O)COC(=O)Cc3n[nH]c(=O)c4ccccc34)c2C)cc1,active: 11.7 µM
5,COc1ccc(C)cc1NC(=O)CSc1nnc2ccc(-c3ccncc3)nn12,"inconclusive [inhibitor, single point]"
6,COc1cnn(-c2cccc(C)c2)c(=O)c1Cl,inactive
7,COc1ccccc1CNC(=O)C1CC(c2ccccc2[N+](=O)[O-])=NO1 (stereo not drawn),inactive
8,COc1cccc(-n2c(SCC(N)=O)nnc2-c2ccncc2)c1,inactive
9,CCc1ccc(NC(=S)NC2CC3CCCC(C2)N3Cc2cccs2)cc1 (stereo not drawn),"inconclusive [inhibitor, full curve]"
10,CS(=O)(=O)NCC(c1ccco1)N1CCN(c2ccc(F)cc2)CC1 (stereo not drawn),inactive
11,COc1cc(C(=S)N2CCOCC2)cc(OC)c1OS(=O)(=O)c1ccc(Cl)cc1,"inconclusive [inhibitor, partial curve]"
12,O=C(NC1CCCCC1)C(c1ccco1)N(Cc1cccnc1)C(=O)C1COc2ccccc2O1 (stereo not drawn),"inconclusive [inhibitor, partial curve]"
13,O=C(C1CCCN(S(=O)(=O)c2ccc([N+](=O)[O-])cc2)C1)N1CCCCC1 (stereo not drawn),"inconclusive [inhibitor, single point]"
14,COc1nc(Nc2ccc(OC)c(Cl)c2)nc(OC)n1,active: 8.28 µM
15,CC(=O)N(C(C)=O)c1ncnc2c1c(-c1ccc(Cl)cc1)nn2C(C)(C)C,"inconclusive [inhibitor, single point]"
16,CCCCn1c(N)c(N(CCOC)C(=O)c2ccc(C)c(S(=O)(=O)N3CCOCC3)c2)c(=O)[nH]c1=O,"inconclusive [inhibitor, full curve, poor fit]"
17,CCN1CCCc2cc(CN(CCN3CCOCC3)C(=S)Nc3ccccc3OC)ccc21,"inconclusive [inhibitor, single point]"
18,C=CCn1c(SCC2CCCCO2)nc2sc(CC)cc2c1=O (stereo not drawn),"inconclusive [inhibitor, single point]"
19,CCOc1ccccc1OCC(=O)Nc1ccccc1C(=O)NC1CC1,inactive
20,Cc1cc(C)n(NC(=S)NC2CCCC2)c(=O)c1C#N,inactive
21,O=C1CCC(=O)N1CC(=O)N(c1ccccc1)c1ccccc1,inactive
